SMILES strings stand for the structures. In all, about 1,900 compounds went through this assay and about 40 (2%) showed an effect of 50% or more. This is one part of the list.

Sequence of human SGLT1 (hSGLT1) (P13866 whole entry, looked up): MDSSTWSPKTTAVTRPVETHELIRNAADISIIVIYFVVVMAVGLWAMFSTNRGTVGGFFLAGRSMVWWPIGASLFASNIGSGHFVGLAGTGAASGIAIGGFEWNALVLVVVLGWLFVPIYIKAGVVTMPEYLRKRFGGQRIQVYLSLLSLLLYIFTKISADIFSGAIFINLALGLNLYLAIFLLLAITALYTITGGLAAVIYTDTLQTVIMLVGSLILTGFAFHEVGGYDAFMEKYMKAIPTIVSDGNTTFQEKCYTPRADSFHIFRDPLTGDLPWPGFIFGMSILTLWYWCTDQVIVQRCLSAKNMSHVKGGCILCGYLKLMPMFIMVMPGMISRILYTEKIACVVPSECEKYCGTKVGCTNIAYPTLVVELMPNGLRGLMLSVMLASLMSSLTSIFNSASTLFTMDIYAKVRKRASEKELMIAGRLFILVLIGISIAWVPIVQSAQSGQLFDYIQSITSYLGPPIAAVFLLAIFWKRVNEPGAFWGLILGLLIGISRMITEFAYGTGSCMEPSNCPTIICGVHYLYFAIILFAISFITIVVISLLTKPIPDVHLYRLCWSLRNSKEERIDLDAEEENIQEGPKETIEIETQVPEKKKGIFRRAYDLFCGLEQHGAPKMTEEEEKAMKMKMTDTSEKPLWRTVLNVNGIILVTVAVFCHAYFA

The test concerns the target human SGLT1 (hSGLT1) (human, UniProt P13866). Nature of the test: primary screen, percent of control activity; higher = less effect of the substance. Also noted: single well. The following applies: 50 µM. The method, boiled down:
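Single-point screen at 50 µmol/L in CHO-hSGLT1 cells, with 160 µmol/L 1-NBD-glucose in glucose-free DMEM for 90 min at 37°C. Fluorescence from isopropanol extracts was calibrated, and CHO wild-type uptake was subtracted. Data are percent of uptake without compound.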
As for `CCC[C@@H]1C[C@@H](C(=O)N[C@@H](C2O[C@H](SC)[C@H](O)[C@@H](O)[C@H]2O)[C@H](C)Cl)N(C)C1.Cl` (some centres unmarked), the “NORMALIZED SGLT1 ACTIVITY (%)” value is 116%.
In the case of `CN[C@@H]1C(OC2[C@H](O[C@H]3[C@H](O)[C@@H](O)[C@H](NC(=N)N)[C@@H](O)[C@@H]3NC(=N)N)OC(C)[C@]2(O)CO)OC(CO)C(O)C1O.O=S(=O)(O)O` (some centres unmarked), the “NORMALIZED SGLT1 ACTIVITY (%)” value was 93%.
On to `C[C@H]1O[C@H](O[C@@H]2[C@@H](O[C@H]3CC[C@@]4(C)C(CC[C@]5(C)C4CC=C4[C@@H]6CC(C)(C)CC[C@]6(C(=O)O)CC[C@]45C)[C@]3(C)CO)OC[C@@H](O)[C@H]2O)[C@@H](O)[C@H](O)[C@@H]1O` (some centres unmarked), for which the “NORMALIZED SGLT1 ACTIVITY (%)” value is listed as 128%.
As for `COC(=O)/C(C)=C\CC12OC(C)(C)C3CC(C=C4C(=O)c5c(OC)c6c(c(CC=C(C)C)c5OC431)OC(C)(CCC=C(C)C)C=C6)C2=O` (centres unmarked), the figure is 154%; as for `C1CCC(C(CC2CCCCN2)C2CCCCC2)CC1.O=C(O)/C=C\C(=O)O` (centres unmarked), 1%.
On to `CC[C@H](C)C(=O)O[C@H]1C[C@@H](C)C=C2C=C[C@H](C)[C@H](CC[C@@H]3C[C@@H](O)CC(=O)O3)[C@H]21`, for which the “NORMALIZED SGLT1 ACTIVITY (%)” value worked out at 78%.
In the case of `C=C1C([C@]2(C)C(CC(=O)OC)[C@@](C)(COC(C)=O)OC(=O)C[C@@H]2OC(C)=O)[C@@H](OC=O)[C@H](OC(=O)C(OC(C)=O)C(C)CC)[C@@]2(C)[C@H](c3ccoc3)CC(=O)C12O` (some centres unmarked), the “NORMALIZED SGLT1 ACTIVITY (%)” value came out at 121%.
As to `COc1ccc2c(c1)OC/C(=C\c1ccc(OC)c(O)c1)C2=O`, the “NORMALIZED SGLT1 ACTIVITY (%)” value is listed as 140%.
Take `CNC(=O)Oc1cccc2c1OC(C)(C)C2`: the “NORMALIZED SGLT1 ACTIVITY (%)” value is 104%.
As to `C[C@](N)(Cc1ccc(O)c(O)c1)C(=O)O`, the “NORMALIZED SGLT1 ACTIVITY (%)” value worked out at 107%.
Consider `COc1cc(OC)c2c(OC)c(-c3ccc4c(c3)OCO4)c(=O)oc2c1`, for which the “NORMALIZED SGLT1 ACTIVITY (%)” value stood at 116%.
For `O=C1c2ccc(O)c(O)c2C(=O)c2c(O)ccc(O)c21`, the “NORMALIZED SGLT1 ACTIVITY (%)” value amounted to 127%.
In the case of `COc1ccc2c(c1)O[C@H]1c3ccc(OC)cc3OC[C@@H]21`, the “NORMALIZED SGLT1 ACTIVITY (%)” value is recorded as 149%.
Consider `COC1C(O)C(O)C(O)[C@@H](O)C1O` (some centres unmarked), for which the “NORMALIZED SGLT1 ACTIVITY (%)” value is 84%.
As for `C[C@@H]1CC[C@H]2[C@@H](C)C(O)O[C@@H]3O[C@@]4(C)CC[C@@H]1[C@]32OO4` (some centres unmarked), the “NORMALIZED SGLT1 ACTIVITY (%)” value is reported as 120%.
In the case of `CC1(C)O[C@@H]2CC3C4C[C@H](F)C5=CC(=O)CC[C@]5(C)C4[C@@H](O)C[C@]3(C)[C@]2(C(=O)CO)O1` (some centres unmarked), the “NORMALIZED SGLT1 ACTIVITY (%)” value is 155%.
As for `O=C(O)C1=C[C@@H](O)[C@@H](O)[C@H](O)C1`, the figure is 90%; as for `C=C(C)[C@@H]1[C@H]2OC(=O)[C@@H]1[C@]1(O)C[C@H]3O[C@]34C(=O)O[C@H]2[C@]14C`, 80%; as for `COC(=O)CCCOc1ccc(Cl)cc1Cl`, 212%.
With `CC(=O)[C@@]1(O)CC[C@H]2[C@@H]3C[C@H](C)C4=CC(=O)C=C[C@]4(C)[C@@]3(F)[C@@H](O)C[C@@]21C` the figure was 113%; with `O=C(O)C(O)C(O)C(=O)O.OCc1cccnc1` (centres unmarked), 98%; with `COC(=O)Nc1nc2ccc(Sc3ccccc3)cc2[nH]1`, 97%.
As for `COc1ccc2c(=O)c(OC)c(-c3ccccc3)oc2c1`, the “NORMALIZED SGLT1 ACTIVITY (%)” value is 88%.
With `C=C[C@H]1CN2CC[C@H]1C[C@H]2[C@H](O)c1ccnc2ccccc12`, the “NORMALIZED SGLT1 ACTIVITY (%)” value was 77%.
As for `CC(=O)O[C@]1(C(C)=O)CCC2C3C=C(C)C4=CC(=O)CCC4(C)C3CCC21C` (some centres unmarked), the “NORMALIZED SGLT1 ACTIVITY (%)” value is 101%.
Regarding `COc1cc2nc(N(C)CCCNC(=O)C3CCCO3)nc(N)c2cc1OC.Cl` (centres unmarked), the “NORMALIZED SGLT1 ACTIVITY (%)” value came to 162%.
Turning to `C#C[C@]1(O)CCC2C3CCC4=CC(=O)CC[C@@H]4C3CCC21CC` (some centres unmarked), the “NORMALIZED SGLT1 ACTIVITY (%)” value was found to be 100%.
For the molecule `CC1(C)S[C@@H]2[C@H](NC(=O)COc3ccccc3)C(=O)N2[C@H]1C(=O)[O-].[K+]`, the “NORMALIZED SGLT1 ACTIVITY (%)” value came to 96%.
With `COc1ccc(-c2cc(=O)c3ccccc3o2)cc1OC` the figure was 202%; with `C[C@H]1[C@H](C)CC[C@]2(CO)CC[C@]3(C)C(=CC[C@@H]4[C@@]5(C)CC[C@H](O)C(C)(C)[C@@H]5CC[C@]43C)[C@H]12`, 85%.
For `COc1ccc2c3c([nH]c2c1)C(C)=NCC3`, the “NORMALIZED SGLT1 ACTIVITY (%)” value amounted to 155%.
With `COc1ccc(C(=O)/C=C/c2ccccc2)cc1`, the “NORMALIZED SGLT1 ACTIVITY (%)” value is 127%.
`O=C(O)CCCCCCCC(=O)O`: the “NORMALIZED SGLT1 ACTIVITY (%)” value came out at 98%.
`COc1cc2c(cc1OC)C1(O)C(=O)c3ccc(O)c(C(=O)O)c3OC1CO2` (centres unmarked): the “NORMALIZED SGLT1 ACTIVITY (%)” value amounted to 111%.
With `CC1=CCCC2C1(C)CCC(C)C2(C)CC/C(C)=C/Cn1c[n+](C)c2c(N)ncnc21.[Cl-]` (centres unmarked), the “NORMALIZED SGLT1 ACTIVITY (%)” value is reported as 58%.
As to `CC1(C)C2CC(=O)O[C@@]3(C)C4=CC(=O)O[C@@H](c5ccoc5)[C@]4(C)CCC3[C@@]2(C)C=C[C@H]1O` (some centres unmarked), the “NORMALIZED SGLT1 ACTIVITY (%)” value was 132%.
In the case of `Cc1ccc(-c2cc(C(F)(F)F)nn2-c2ccc(S(N)(=O)=O)cc2)cc1`, the “NORMALIZED SGLT1 ACTIVITY (%)” value is 142%.
`COc1ccc(-c2cc(=O)c3c(O)c(OC)c(O[C@@H]4O[C@H](CO[C@@H]5O[C@@H](C)[C@H](O)[C@@H](O)[C@H]5O)[C@@H](O)[C@H](O)[C@H]4O)cc3o2)cc1`: the “NORMALIZED SGLT1 ACTIVITY (%)” value came to 111%.
As for `Cl.N=C(N)NC(=N)Nc1ccccc1`, the “NORMALIZED SGLT1 ACTIVITY (%)” value is listed as 136%.
Regarding `C[C@H]1OC(n2cc(F)c(=O)[nH]c2=O)C(O)[C@@H]1O` (some centres unmarked), the “NORMALIZED SGLT1 ACTIVITY (%)” value came to 112%.
For the molecule `CN1CCCCC1c1ccc(-c2cccnc2)nc1.Cl` (centres unmarked), the “NORMALIZED SGLT1 ACTIVITY (%)” value is listed as 71%.
Turning to `O=C(O)[C@@H](O)[C@H](O)[C@H](O)[C@@H](O)C(=O)O`, the “NORMALIZED SGLT1 ACTIVITY (%)” value is 93%.
For `COc1nc(NC(C)C)nc(NC(C)C)n1`, the “NORMALIZED SGLT1 ACTIVITY (%)” value is 96%.
In the case of `Nc1nc2ccc(OC(F)(F)F)cc2s1`, the “NORMALIZED SGLT1 ACTIVITY (%)” value came out at 446%.
